The values that follow come from patent US6696546B1, “Peptide that kills growing but not stationary cells” (The Trustees of Columbia University in the City of New York, priority 2000, dated 2004).

The target in this assay is PAP-cyclin B1 interaction (Homo sapiens, UniProt P14635). Nature of the assay: GST-cyclin B1 pull-down assay of PAP binding. The settings on record: lower concentrations of peptide (9 and 18 μM); relative to 100% of PAP I used.
PAP-cyclin B1 interaction, sequence (P14635 whole entry): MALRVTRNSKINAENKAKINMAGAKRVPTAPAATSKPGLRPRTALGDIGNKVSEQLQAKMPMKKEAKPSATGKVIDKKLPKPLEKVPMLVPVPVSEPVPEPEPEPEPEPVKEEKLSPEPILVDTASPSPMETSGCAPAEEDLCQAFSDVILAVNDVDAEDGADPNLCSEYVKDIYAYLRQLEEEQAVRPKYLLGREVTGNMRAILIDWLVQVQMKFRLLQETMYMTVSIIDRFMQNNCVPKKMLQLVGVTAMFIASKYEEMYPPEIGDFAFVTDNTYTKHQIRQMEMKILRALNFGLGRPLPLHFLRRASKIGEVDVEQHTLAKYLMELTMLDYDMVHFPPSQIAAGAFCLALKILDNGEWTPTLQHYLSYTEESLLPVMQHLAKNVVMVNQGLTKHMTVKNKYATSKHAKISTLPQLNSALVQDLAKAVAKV

As to “SKIRILVG (poly(A) polymerase cyclin recognition motif) [SEQ ID NO:1]”, the “PAP I bound to cyclin B1” value was 50-100%.
